# Reference: patent US20070059684A1 (UNIVERSITY OF MEDICINE AND DENTISTRY OF NEW JERSEY, published 2007)
# Key:
# Format in all cases: cell-based, Saccharomyces cerevisiae
# [1] = test system: −1 ribosomal frameshifting in mof mutant cells
# [2] = test system: L-A derived −1 ribosomal frameshifting; conditions: JD88 cells
# [3] = test system: Tyl derived +1 ribosomal frameshifting; conditions: JD88 cells, pJD104
structure (smiles),measurement,setting,value
COc1ccc(C[C@H]2NC[C@H](O)[C@H]2OC(C)=O)cc1 [anisomycin],−1 frameshifting efficiencies,[1]; mof6-1 cells,does affect −1 frameshifting efficiencies
same,efficiency of −1 ribosomal frameshifting,[1]; mof9-1 cells,no effect
same,efficiency of −1 ribosomal frameshifting,[2]; increasing drug concentrations,decreasing −1 ribosomal frameshifting efficiencies
same,"effects on −1 ribosomal frameshifting, mixing experiment",[2]; anisomycin and sparsomycin together,cancel one another out
same,+1 ribosomal frameshifting,[3],neither drug had any affect on +1 ribosomal frameshifting
